Measured values taken from PubChem BioAssay AID485364 (National Center for Advancing Translational Sciences (NCATS), 2010).
About 11,000 (3.1%) of roughly 360,000 compounds were called active. This list was built around the results that the source calls inconclusive (neither active nor inactive); the mix of calls is not that of the screen. The call rests on the fitted dose curve; in most records, active means well fitted inhibition curve with a large enough effect; inconclusive means small, poorly fitted or top-dose-only effect; inactive means no such curve, though single readings can be large or run the other way. Potencies of inconclusive entries are left out as doubtful fits.

The molecules below were run against Schistosoma mansoni thioredoxin glutathione reductase (TGR) (UniProt Q962Y6) (assay: qHTS Assay for the Inhibitors of Schistosoma Mansoni Peroxiredoxins). Settings: purified TGR, DTNB reduction, TNB absorbance 405 nm; activity change, negative = inhibition: at 114 µM (top of the series) unless noted.
Outline: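 TGR 20 nM + NADPH 100 uM (dispensed conc.), cpd preinc 15 min RT; start with NADPH (500 uM addition) then DTNB (15 mM addition). Kinetic TNB absorbance, 405 nm filter. Four-parameter Hill fit across titration.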
Further: nearly all actives have a fitted effect of over 60% in size.
On the % scale 0 is the no-effect control and ±100 the full control effect; potency means the concentration at half of the fitted maximal effect; tags describe the fitted curve by direction and shape.

| Structure (SMILES) | Potency | activity change, negative = inhibition |
| --- | --- | --- |
| CC(/C=N/n1c(-c2ccccc2)n[nH]c1=S)=C\c1ccco1 | inconclusive [inhibitor, partial curve] |  |
| O=c1c(Cl)c(NCc2ccccc2)cnn1C12CC3CC(CC(C3)C1)C2 |  | inactive: 0.5% |
| O=S(=O)(c1ccccc1)c1ncc(C(F)(F)F)cc1Cl | active: 3.98 µM |  |
| CCC(C)[C@H](NC(=O)N1CC(=O)Nc2ccccc21)C(=O)N1CCC(C(=O)O)CC1 (stereo partly drawn) |  | inactive: 0.716% |
| O=C(/C=N/O)NCCCN1CCCCCC1 | inconclusive [inhibitor, full curve, poor fit] |  |
| CC(=O)Nc1ccc2c(c1)CC1(C(=O)N(C)C(=O)N(C)C1=O)C1CCCN21 (stereo not drawn) | active: 44.7 µM |  |
| CCOC(=O)C(=O)/C(C#N)=C/Nc1ccc(Cl)cc1 | inconclusive [inhibitor, partial curve] |  |
| CCOc1ccc(NC(=O)C2C3CCC4C(CCC32)C4(Cl)Cl)cc1 (stereo not drawn) | inconclusive [inhibitor, partial curve] |  |
| CC1=NC(C)(C)Cc2cc(C)c(C)cc21 |  | inactive: 14.1% |
| Cc1c(O)c(CN2CCCC2)cc2c1oc(=O)c1ccccc12 | active: 50.1 µM |  |
| c1ccc(C2=Nn3c(nnc3-c3ccco3)SC2)cc1 |  | inactive: -13.2% |
| Cc1ccc(CN2CCCn3nc(C(=O)NCc4ccccc4Cl)cc3C2=O)cc1 |  | inactive: -1.22% |
| COc1ccc(/C=C/c2nc(S(=O)(=O)c3ccccc3)c(NCCCN(C)C)o2)cc1OC | inconclusive [inhibitor, partial curve] |  |
| NC(=O)c1c(NC(=O)Cc2cccs2)sc2c1CCC2 | inconclusive [inhibitor, partial curve] |  |
| COc1ccc2ccccc2c1/C=N/Nc1ccc(Cl)c(C(=O)O)c1 | inconclusive [inhibitor, full curve, poor fit] |  |
| Nc1nonc1C(=O)N/N=C/c1cc2c(cc1[N+](=O)[O-])OCO2 |  | inactive: 7.77% |
| O=C(CN1CCN(CC(=O)Nc2ccccc2Cl)CC1)Nc1ccc(F)c(F)c1 | inconclusive [inhibitor, partial curve] |  |
| C/C(=N\NC(=O)Cc1cccn1C)c1ccc([N+](=O)[O-])cc1 | inconclusive [inhibitor, partial curve, poor fit] |  |
| C=CCn1c(N)c(C(=O)OC(C)(C)C)c2nc3ccccc3nc21 | inconclusive [inhibitor, partial curve] |  |
| COc1cccc(-c2nc(CS(=O)CC(=O)O)c(C)o2)c1 (stereo not drawn) | inconclusive [inhibitor, single point] |  |
| COc1ccc(-c2noc(-c3cccnc3N3CCN(c4ccc(OC)cc4)CC3)n2)cc1 | inconclusive [inhibitor, partial curve] |  |
| CCCCN(CC)C(=O)CSc1c2c(nc3ccc(Cl)cc13)CCCC2 |  | inactive: -10.6% |
| Oc1c(C=NCc2ccc(F)cc2)[nH]c2ccc(Br)c(Cl)c12 | active: 31.6 µM |  |
| CCO/N=C(/C)c1c(O)c(C)c(-c2ccccc2)n(-c2ccccc2)c1=O | inconclusive [inhibitor, partial curve] |  |

| Structure (SMILES) | Potency | activity change, negative = inhibition |
| --- | --- | --- |
| C/C=C\C=C/C(=O)Nc1cccc(C2=NOC3(C2)C[C@@H](C(N)=O)N(C(=O)c2ccc(Cl)cc2)C3)c1 (stereo partly drawn) | active: 3.16 µM |  |
| CCCCS(=O)(=O)/C=C\C=C/S(=O)(=O)CCCC | active: 2.24 µM |  |
| O=C(O)/C=C/C(=O)NCC1CCC(CNC(=O)/C=C/C(=O)O)CC1 (stereo not drawn) | inconclusive [inhibitor, partial curve] |  |
| CC(=O)c1cccc(NC(=O)COc2cc3oc(=O)c(CC(C)O)c(C)c3cc2Cl)c1 (stereo not drawn) |  | inactive: -5.75% |
| O=C(O)C1Nc2c(cccc2C(F)(F)F)C2C=CCC12 (stereo not drawn) | active: 1.41 µM |  |
| C/C(=N/NC(=O)C(O)(c1ccccc1)c1ccccc1)c1ccc([N+](=O)[O-])o1 | inconclusive [inhibitor, partial curve] |  |
| CC(=O)c1ccc(N2CCN(C(=O)CCC(=O)Nc3ccc4nc(N5CCN(C)CC5)cc(C)c4c3)CC2)cc1 |  | inactive: -11.7% |
| COc1ccc(-c2nc(CSCC(=O)NCCc3ccccc3)c(C)o2)cc1 | inconclusive [inhibitor, partial curve] |  |
| CCN(CC)c1ccc(CNc2ccc3c(c2)ncn3C(C)(C)C)cc1 | inconclusive [inhibitor, full curve] |  |
| COc1ccc(NC(=S)N2CCN(Cc3ccccc3)CC2)cc1 |  | inactive: 3.76% |
| N#CC1=C(N)C2=CCCC[C@H]2[C@H](c2ccc(Br)cc2)C1(C#N)C#N | active: 31.6 µM |  |
| CCCCOC(=O)C1=C(C)Nc2ncnn2C1c1ccc(OCC)c(OC)c1 (stereo not drawn) | inconclusive [inhibitor, single point] |  |
| Cc1cc(C)c(S(=O)(=O)N/N=C/c2ccc([N+](=O)[O-])o2)c(C)c1 | active: 7.08 µM |  |
| Cc1ccc(OC(C)C(=O)Nc2ccc3c(c2)n(C)c(=O)n3C)cc1C (stereo not drawn) |  | inactive: -4.85% |
| COc1ccc(C)cc1NS(=O)(=O)c1c(C(=O)N2CCCCCC2)c(C)n(C)c1C | active: 5.62 µM |  |
| CCN(CC)CCn1c(NS(=O)(=O)c2ccc(Cl)cc2)nc2ccccc21 |  | inactive: -28.3% |
| COCCCNC(=O)c1c(N)n(-c2ccccc2)c2nc3ccccc3nc12 |  | inactive: -15.7% |
| C=CCc1c(C)nc(-c2ccccc2)nc1N/N=C/c1ccccc1 |  | inactive: -6.29% |
| CC(C)(C)P(=O)(N1CCOCC1)N1CCOCC1 | inconclusive [inhibitor, single point] |  |
| COc1ccc(S(=O)(=O)Cc2ccc(C(=O)N3CCN(Cc4ccccc4)CC3)o2)cc1 | inconclusive [inhibitor, full curve, poor fit] |  |
| Cc1ccc(CN2CCNC(=O)C2CC(=O)NCC(F)(F)F)o1 (stereo not drawn) | active: 39.8 µM |  |
| COC(=O)C1=C(C)NC(C)=C(C(=O)OC)C1c1ccco1 | inconclusive [inhibitor, full curve] |  |
| CCCN(CCC)C(=S)NC(=O)c1ccc(-c2ccccc2)cc1 |  | inactive: -9.23% |
| OC(CN1CC=C(/C=C/c2ccc(Br)cc2)CC1)c1ccccc1 (stereo not drawn) | inconclusive [inhibitor, partial curve] |  |
